The source gives no read counts; variants with many changes may rest on few reads.

To fix the notation:
B1: OR4K15 (parent)
chain: GUUAACGGUCAUAGGCCAUGGAAACUAGGAGCACCAUUUCGCUGCCAGUGAAGAAAUGAACAAAGAAAAUCUGGGCCAGGCAGGCAUCAAAAGAAAUAGUCUUGCGCUCAACCAGAAAGUCUGUAAUCAUUUUAAGGGUA

In the series the parent is B1. In words: self-cleavage, relative activity (ratio to wild type); higher = more cleavage; in vitro, sequencing; the parent is a self-cleaving ribozyme.
As for GUUAACGGUCAUAGGCCAUGGAUGCUAGGAGCACCAUUUCGCUGCCAGUGAAGAAAUGAACGAAGAAAAUCUGGGCCAGGCAGGCAUCAAAAGAAAUAGUCUUGCGCUCAACCAGAAUGUCUGUAAUCAUUUUAAGGGUA, the self-cleavage was 0.38. As to GUUAACGGUCAUAGGCCAUGGAACCUAGGGGCACCAUUUCGCUGCCAGUGAAGAAAUGAACAAAGAAAAUCUGGGCCAGGCAGGCAUCAAGAGAAAUAGUCUUGCGCUCAACCAGAAAGUCUGUAAUCAUUUUAAGGGUA, the self-cleavage is 1.14.

GUUAACGGUCAUAGGCCAUGGAGACUAGGAGCACCAUUUCGCUGCCAGUGAAGAAAUGAACAAAGAAAAUCUGGGCCAGGCAGGCAUCAAAAGAAAUAGUCUUGCGCCCAACCAGAAAGUCUGUAAUCAUUUUAGGGGUA: the self-cleavage was determined as 0.06. GUUAACGGUCAUAGGCCAUGGAUACUAGGAGCACCAUUUCGCUGCCAGUGAAGAAAUGAACAAAGAAAAUCUGGGCCAGGCAGGCAUCAAAGGAAAUAGUCCUGCGCUCAACCAGAAAGUCUGUAAUCAUUUUAAGGGUA: the self-cleavage is 0.87.

Turning to GUUAACGGUCAUAGGCCAUGGAUACUGGGAGCACCAUUUCGCUGCCAGUGAAGAAGUGAACGAAGAAAAUCUGGGCCAGGCAGGGAUCAAAAGAAAUAGUCUUGCGCUCAGCCAGAAAGUCUGUAAUCAUUUUAAGGGUA, the self-cleavage came out at 0. As for GUUAACGGUCAUAGGCCAUGGAGACUAGGAGCACCAUUUCGCUGCCAGUGAAGAAAUGAACAAAGAAAAUCUGGGCCAGGCAGGCAUCAAAAGAAAUAGUCUUGCGCUCAACCAGAAAGACUGUAAUCAUUUUAUGGGUA, the self-cleavage stood at 1.27. As to GUUAACGGUCAUAGGCCAUGGAUACUAGGAGCACCAUUCCGCUGCCAGUGAAGAAAUGAACAAAGAAAAUCUGGGCCAGGCGGGCAUCAAAAGAAAUAGUCUUGCGCUCAACCAGAAAGUCUGUAAUCAUUUUAAGGGUA, the self-cleavage was found to be 0.47. Consider GUUAACGGUCAUAGGCCAUGGAUACUAGGAGCACCAUUUCGCUGCCAGUGAAGAAAUGAACAAAGAAAAUCUGGGCCAGGCAGGCAUCAAAAGAAAUAGUCUUGCGCUCGACCAGGAAGUCUGUAAUCAUUUUAAGGGUA, for which the self-cleavage came to 0.09.

For the variant GUUAACGGUCAUAGGCCAUGGAUACUAGGAGCACCAUUUCGCUGCCGGUGAUGAAAUGAACAAAGAAAAUCUGGGCCAGGCAGGCAUCAAAAGAAAUAGUCUUGCGCUCAACCAGAAAGUCUGUAAUCAUUUUAAGGGUA, the self-cleavage came to 1.59. As to GUUAACGGUCAUAGGCCAUGGAUACUAGGGGCACCAUUUCGCUGCCAGUGAGGAAAUGAACAAAGGAAAUCUGGGCCAGGCAGGCAUCAUAAGAAAUAGUCUUGCGCUCAACCAGGAAGUCUGUGAUCAUUUUAAGGGUA, the self-cleavage was 0.32. Turning to GUUAACGGUCAUAGGCCAUGGAACCUGGGAGCACCAUUACGCUGCCAGCGGAGAAAUGAACAAAGAAAAUCUGGGCCAGGCAGGCAUCAAAAGAAAUAGCCUUGCGCUCAACCAGAAAGUCUGUAAUCAUUUUAAGGGUA, the self-cleavage was 1.18. As for GUUAACGGUCAUAGGCCAUGGAUACUAGGAGCACCAUUUCGCUGCCAGUGAAGAAAUGAACAAAGAAAAUCUGGGCCAGGCAGGCAUCAAAAGAAAUAGUCUUGCGCUCACCCUGAAAGUCUGUAAUCAUUUUAAGGGUA, the figure is 0.03. For GUUAACGGUCAUAGGCCAUGGAUACUAGGUGCACCAUCUCGCUGCCUGUGAAGAAAUGAACAAGGAAAAUCUGGGCCAGGCAGGCAUCAAAAGAAAUAGUCUUGCGCUCAGCUAGAAAGUCUGUAAUCAUUUUAAGGGUA, the self-cleavage is 0.02. For the variant GUUAACGGUCAUAGGCCAUGGAUACUAGGAGCACCAUUUCGCUGCCAGUGAAGAAAUGGACAAAGAAAAUCUGGGCCAGGCAGGCAUCAAAAGAAAUAGUCUUGCGCUCGACCAGAAAGUCUGUAAUCAUUUUAAGGGUA, the self-cleavage came out at 0.05. Consider GUUAACGGUCAUAGGCCAUGGAUACCAGGAGCACCAUUUCGCUGCCAGUGAAGAAAUGAACAAAGGAAAUCUGGGCCAGGCAGGCAUCAAAAGAAAUAGUCUUGCGCUCAACCAGAAAGUCUGUAAUCAUUUUAAGGGUA, for which the self-cleavage turned out to be 1.86. As for GUUAACGGUCAUAGGCCAUGGAUACUAGGAGCGCCAUUUCGCUGCCAGUGAAGAAAUGAACUAAGAAAAACUGGGCCAGGCAGGCAUCAAAAGAAAUAGUCUUGCGCUCGACCAGAAAGUCUGUAAUCAUUUUAAUGGUA, the figure is 0.06; as for GUUAACGGUCAUAGGCCAUGGAUACUAGGAGCACCAUUUCGCUGCCAGUGAAGAAAUGAACAAAGAAAAUCUGGGCCAGGCAGGCAUCAAAAGAAAUAGUCUUGCGCUCAACCAGAAAGUCCAUAAUCACUUUAAGGGUA, 1.3. As for GUUAACGGUCAUAGGCCAUGGAACCUAGGAGCGCCGUUUCGCUGCCAGUGAAGAAAUGAACAAAGAAAAUCUGGGCCAGGCAGGCAUCAAAAGGAAUAGUCCUGCGCUCAACCAGAAAGUCUGUAAUCAUUUUAAGGGUA, the figure is 1.84. Turning to GUUAACGGUCAUAGGCCAUGGAUACUAGUAGCACCAUUUCGCUGCCAGUGAAGAAGUGAACAAAGAAAAUCUGGGCCAGGCAGGCAUCAAAAGAAAUAGUCUUGCGCUCAACCAGAAAGCCUGUAAUCAUUUUAAGGGUA, the self-cleavage is 0.94. For the variant GUUAACGGUCAUAGGCCAUGGAUACUAGGAGCACCAUUUCGCUGCCAGUGAAGAGAUGAACAAAGGAAAUCUGGGCCAGGCAGGCAUCAAAAGAAAUAGUCUUGCGCUCAACCUGAAAGUCUGUAAUCAUUUUAAGGGUA, the self-cleavage is 0.1.

As for GUUAACGGUCAUAGGCCAUGGAUACUAGGAGCACCAUUUCGCUGCCAGUGAGGAAAUGAACAAAGAAAAUCUGGGCCAGGCAGGCAUCAAGAGAAAUAGUCUUGCGCUCAACCAGAAAGUCUGUAAUCAUUUUAAGGGUA, the self-cleavage came to 1.56.

On to GUUAACGGUCAUAGGCCAUGGAUGCUAAGAGCACCAUUUCGCUGCCAGUGAAGAAAUGAACAAAGAAAGUCUGGGCCAGGCAUGCAUCAAAAGAAAUAGUCUUGCGCUCAACCAGAAAGUCUGUAAUCAUUCUAAGGGUA, for which the self-cleavage turned out to be 0.49. For GUUAACGGUCAUAGGCCAUGGAUACUAGGUGCACCAUCUCGCUGCCAGUGAAGAAAUGAACAAAGAAAAUCUGGGCCAGGCAGGCAUCAAAAGAAAUAGUCUCGCGCUCAACCAGAAAGUCUGUGAUCAUUUUAAGGGUA the value was 0.38; for GUUAACGGUCAUAGGCCAUGGAUACUAGGAGCACCAUUUCGCUGCCAGUGAAGAAAUGAACAAAGAAAAUCUGGGCCAGGCAGGCAUCAAAAGAAAUAGUCUUGCGCUCAACCGGAAAGUCUGUAAUCACUUUAAGGGUA, 0.15. As for GUUAACGGUCAUAGGCCAUGGAUACUAGGAGCACCAUUUCGCUGCCAGUGAAGAGAUGAACAAAGGAAAUCUGGGCCAGGCAGGCAUCAAAAGAAUUAGUCUUGCGCUCAACCAGAAAGUCUGUAAUCAUUUUAAGGGUA, the figure is 0.66; as for GUUAACGGUCAUAGGCCAUGGAUACUAGGAGCACCAUUUCGCUGCCAGUGGAGAAAUAAACAAAGAAAAUCUGGGCCAGGCAGGCAUCAAAAGAAAUGGUCUUGCGCUCAACCAGAAAGUCUGUAAUCAUUUUAAGGGUA, 0.22.

Turning to GUUAACGGUCAUAGGCCAUGGAUACUAGGAGCACCAUUUCGCUGCCAGUGAAGAAAUGAACAAAGAAAAUCUGGGCCAGGCGGGCAUCAAAAGAAAUAGUCUUGCGCUCAACCAGAAGGUCUGUAAUCAUUUUAAGGGUA, the self-cleavage was 0.44. As for GUUAACGGUCAUAGGCCAUGGAUACUAGGAGCACCAUUUCGCUGCCAGUGAGGAAAUGAACAAAGAAAAUCUGGGCCAGGCAGGCAUCAAAAGGAAUAGUCUUGCGCUCAACCAGAAAGUCUGUAAUCAUUUUAAGGGUA, the self-cleavage was found to be 2.18. Take GUUAACGGUCAUAGGCCAUGGAACCUAGGAGCGCCAUUUCGCUGCCAGUGGAGAAAUGAACAAAGUAAAUCUGGGCCAGGCAGGCAUCAAAAGAAAUAGUCUUGCGCUCAACCAGAAAGUCUGUAAUCAUUUUAAGGGUA: the self-cleavage is 0.43. As for GUUAACGGUCAUAGGCCAUGGAUCCUAGGAGCACCAUUUCGCUGCCAGUGAAGAAAUGAACAAAGAAAAUCUGGGCCAGGCAGGCAUCAAAAGAAAUAGUCUUGCGCUCAACCAGAAAGUCUGUAAUCAUUUCAAGGGUA, the figure is 0.85; as for GUUAACGGUCAUAGGCCAUGGAUACUAGGAGCACCAUCUCGCUGCCAGUGAAGAAAUGAACAAAGAAAAUCUGGGCCAGGCAGGCAUCAAAAGAAAUAGUCUUGCGCUCAACCAGAAAGUUUGUAAUCAUUUUAAGGGUA, 1.5. As for GUUAACGGUCAUAGGCCAUGGAUACUAGGAGCACCAUUUCGCUGCCAGUGAAGAAAUGAGCAAAGAAAAUCUGGGCCAGGCAGGCACCAAAAGAAGUAGUCUUGCGCUCAACCAGAAAGUCUGUAAUCAUUUUAAGGGUA, the figure is 1.46; as for GUUAACGGUCAUAGGCCAUGGAUACUAGGAGCACCAUUCCGCUGCCAGAGAAGAAAUGAACAAAGAAAAUCUGGGCCAGGCAGGCAUCAAAAGGAAUAGUCUUGCGCUCAACCAGAAAGUCUGUAAUCAUUUUAAGGGUA, 0.77; as for GUUAACGGUCAUAGGCCAUGGAUACUAGGGGCACCAUUUCGCUGCCAGUGAAGAAAUGAACAAAGAAAAUCUGGGCCAGGCGGGCAUCAAAAGAAAUAGUCUUGCGCUCAACCAGAAAGUCUGUAAUCAUUUUAAGGGUA, 0.78.

As for GUUAACGGUCAUAGGCCAUGGAUACUAGGGGCACCAUUUCGCUGCCAGUGAAGAAAUGAACAAAGAAAAUCUGGGCCAGGCUGGCAUCAAAAGAAAUAGUCUUGCGCUCAACCAGAAAGUCUGUAAUCAUUUUAAGGGUA, the self-cleavage was found to be 0.24. Turning to GUUAACGGUCAUAGGCCAUGGAUGCUAGGAGCACCAUUCCGCUGCCAGUGAAGAAAUGAACAAAGAAAAUCUGGGCCAGGCAGGCAACAAAAGAAAUAGUCUUGCGCUCAACCAGAAAGUCUGUAAUCAUUUUAAGGGUA, the self-cleavage worked out at 1.48. Turning to GUUAACGGUCAUAGGCCAUGGAUACUAGGAGCACCAUUUCGCUGCCAGUGAAGAAAUAGGCAAAGAAAAUCUGGGCCAGGCAGGCAUCAAAAGAAAUAGUCUUGCGCUCAACCAGAAAGUCUGUAAUCAUUCUAAGGGUA, the self-cleavage came out at 0.7.

Take GUUAACGGUCAUAGGCCAUGGAUACUAGGAGCACCAUUUCGCUGCCAGUGAAGAAAUGAACAAAGAAAAUCUGGGCCAGGCAGGCAUCAGAAGAAAUAGUCUGGCGCUCAACCAGAAAGUCUGUAAUCAUUUUAAGGGUA: the self-cleavage amounted to 0.05.

In the case of GUUAACGGUCAUAGGCCAUGGAUACUAGGAGCACCAUUUCGCUGCCGGUGAAGAAAUGAACAAAGAAAAUCUGGGCCAGGCAGGCAUCAAAAGAAAUGGUCUUGCGCUCAACCAGAAAGUCUGUAAUCAUUUUAAGGGUA, the self-cleavage is 0.15. As for GUUAACGGUCAUAGGCCAUGGAACCUAGGGGCACCAUUUCGCUGCCAGUGAAGAAAUGAACAAAGAAAAUCUGGGCCAGGCAGGCAUCCAAAGAAAUAGUCUUGCGCUCAACCAGAAAGUCUGUAAUCAUUUUAAGGGUA, the figure is 1.83; as for GUUAACGGUCAUAGGCCAUGGAUACUUGGAGCACCAUUUCGCUGCCAGUGAAGAAAUGAACACAGAAAAACUGGGCCAGGCAGGCAUCAAAAGAAAUAGUCUUGCGCUCAACCAGAAGGUCUGUAAUCAUUCUAAGGGUA, 0.42.
